Data published in PubChem BioAssay AID504333 (National Center for Advancing Translational Sciences (NCATS), 2011).
Out of some 360,000 compounds screened, about 16,000 (4.4%) were called active. This list was built around the results that the source calls inconclusive (neither active nor inactive); the mix of calls is not that of the screen. Calls follow the shape of the dose curve; as a rule, active = well fitted inhibition curve with a large enough effect; inconclusive = small, poorly fitted or top-dose-only effect; inactive = no such curve, though single readings can be large or run the other way. Potencies beside an inconclusive call are fits to weak or partial responses and may not hold up.

Target: Bromodomain adjacent to zinc finger domain protein 2B (Homo sapiens) (UniProt Q9UIF8)
Test: qHTS Assay for Inhibitors of BAZ2B; also: nearly all actives have a fitted effect of over 60% in size
Settings: AlphaScreen BAZ2B-H3K14Ac peptide displacement; activity change, negative = inhibition: at 114 µM (top of the series)
In short: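 Inhibition is scored as reduced AlphaScreen emission. The BAZ2B/b-H3(5-23)K14Ac complex (50 nM each) in PBS pH 7.4, 0.01% Tween-20 meets compound (up to 110 uM) for 30 min at RT before bead addition.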
% is scaled to controls: 0 for no effect and ±100 for the full control effect; potency is read from the fitted curve at half-maximal effect; tags tell the direction and shape of the fitted curve.

UniProt Q9UIF8, sequence (Q9UIF8 whole entry, looked up, the tested form may be a part): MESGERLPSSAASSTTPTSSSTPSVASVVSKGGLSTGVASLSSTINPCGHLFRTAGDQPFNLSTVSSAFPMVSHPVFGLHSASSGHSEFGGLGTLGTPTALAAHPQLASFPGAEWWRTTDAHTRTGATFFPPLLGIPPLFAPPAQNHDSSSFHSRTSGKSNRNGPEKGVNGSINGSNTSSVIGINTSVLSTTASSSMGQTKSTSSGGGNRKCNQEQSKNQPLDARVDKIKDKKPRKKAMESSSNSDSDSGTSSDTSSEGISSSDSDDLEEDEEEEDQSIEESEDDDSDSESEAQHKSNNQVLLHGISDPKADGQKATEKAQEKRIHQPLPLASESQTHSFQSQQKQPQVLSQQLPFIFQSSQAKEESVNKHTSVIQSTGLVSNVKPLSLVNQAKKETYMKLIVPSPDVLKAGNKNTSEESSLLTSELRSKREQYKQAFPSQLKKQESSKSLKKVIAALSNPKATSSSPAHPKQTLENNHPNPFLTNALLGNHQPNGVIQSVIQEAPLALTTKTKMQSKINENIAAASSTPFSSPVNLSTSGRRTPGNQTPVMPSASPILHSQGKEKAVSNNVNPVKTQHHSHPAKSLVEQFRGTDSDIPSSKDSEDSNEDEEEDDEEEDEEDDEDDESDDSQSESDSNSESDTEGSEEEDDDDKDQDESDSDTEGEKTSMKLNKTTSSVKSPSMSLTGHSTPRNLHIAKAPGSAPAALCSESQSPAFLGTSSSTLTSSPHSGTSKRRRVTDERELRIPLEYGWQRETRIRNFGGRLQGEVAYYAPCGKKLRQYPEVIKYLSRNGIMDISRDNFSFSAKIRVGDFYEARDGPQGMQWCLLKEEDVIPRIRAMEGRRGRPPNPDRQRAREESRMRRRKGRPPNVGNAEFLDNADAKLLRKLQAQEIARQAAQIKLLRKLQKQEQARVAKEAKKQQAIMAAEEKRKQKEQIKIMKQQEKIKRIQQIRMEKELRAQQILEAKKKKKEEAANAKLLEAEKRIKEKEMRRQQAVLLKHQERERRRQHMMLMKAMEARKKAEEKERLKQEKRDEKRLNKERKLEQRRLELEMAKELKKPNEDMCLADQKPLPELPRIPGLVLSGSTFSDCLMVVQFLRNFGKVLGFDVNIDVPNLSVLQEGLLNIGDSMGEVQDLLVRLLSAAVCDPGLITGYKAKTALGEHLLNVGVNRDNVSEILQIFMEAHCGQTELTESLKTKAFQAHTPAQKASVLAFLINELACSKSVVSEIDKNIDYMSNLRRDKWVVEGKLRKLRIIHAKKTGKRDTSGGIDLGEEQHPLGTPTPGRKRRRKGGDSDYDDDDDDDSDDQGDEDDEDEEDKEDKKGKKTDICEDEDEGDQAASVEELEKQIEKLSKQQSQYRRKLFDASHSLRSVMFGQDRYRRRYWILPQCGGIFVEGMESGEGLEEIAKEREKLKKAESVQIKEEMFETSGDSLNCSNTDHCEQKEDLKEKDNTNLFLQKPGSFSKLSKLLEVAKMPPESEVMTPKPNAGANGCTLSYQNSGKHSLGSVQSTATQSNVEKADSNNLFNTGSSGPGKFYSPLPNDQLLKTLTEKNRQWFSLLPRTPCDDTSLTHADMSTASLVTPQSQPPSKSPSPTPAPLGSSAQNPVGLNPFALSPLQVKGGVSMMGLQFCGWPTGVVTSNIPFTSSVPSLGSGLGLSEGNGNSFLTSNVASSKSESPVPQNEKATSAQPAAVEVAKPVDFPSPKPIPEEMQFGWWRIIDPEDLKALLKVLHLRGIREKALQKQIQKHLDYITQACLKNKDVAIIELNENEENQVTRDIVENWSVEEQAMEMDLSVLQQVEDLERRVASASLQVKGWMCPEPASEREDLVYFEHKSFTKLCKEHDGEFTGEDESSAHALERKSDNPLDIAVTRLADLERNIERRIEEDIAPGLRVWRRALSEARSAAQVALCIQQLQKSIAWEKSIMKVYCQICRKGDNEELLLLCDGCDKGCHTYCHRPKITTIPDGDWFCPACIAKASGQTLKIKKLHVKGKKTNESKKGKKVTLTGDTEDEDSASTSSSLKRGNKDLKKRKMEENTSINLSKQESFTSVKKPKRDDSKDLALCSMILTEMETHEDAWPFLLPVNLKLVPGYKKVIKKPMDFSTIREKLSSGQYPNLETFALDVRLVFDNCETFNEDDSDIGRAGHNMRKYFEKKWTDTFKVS

SMILES	Potency	activity change, negative = inhibition
Cc1ccc(NC(=S)NNC(=O)c2ccc(N3CCOCC3)c([N+](=O)[O-])c2)cc1C	inconclusive: 44.7 µM [inhibitor, partial curve]	
CC(OC(=O)COc1ccccc1[N+](=O)[O-])C(=O)Nc1ccc(N2CCOCC2)cc1 (centres undefined)	inconclusive: 79.4 µM [inhibitor, single point]	
COc1ccc(-n2c(=O)c(CCC(=O)N(C)Cc3ccccc3C)nc3ccccc32)cc1	inconclusive: 70.8 µM [inhibitor, partial curve]	
Clc1ccc(-c2nc3cnccn3c2Nc2ccc3c(c2)OCO3)cc1	active: 44.7 µM	
Cc1cc(C)c2nc(N(CCN(C)C)C(=O)c3ccc4ccccc4c3)sc2c1	inconclusive: 11.2 µM [inhibitor, partial curve]	
Cc1cc(C)c[n+](-c2[nH]c(=O)sc2/C=N/NC([S-])=Nc2ccccc2)c1	inconclusive: 89.1 µM [inhibitor, single point]	
COc1ccc(Cl)cc1NC(=O)CN(C)CC(=O)Nc1cccc(S(=O)(=O)N2CCCC2)c1		inactive: -5.77%
Nc1ccc(C(=O)N/N=C/c2cn(Cc3ccccc3)c3ccccc23)cc1	inconclusive: 35.5 µM [inhibitor, partial curve]	
O=c1c2c3c(sc2nc(NCCOCCO)n1Cc1ccco1)CCCCC3	inconclusive: 50.1 µM [inhibitor, partial curve]	
Cc1ccccc1C(=O)Nc1cc2c(cc1N1CCOCC1)n(C)c(=O)n2C	active: 50.1 µM	
Cc1cccc(-c2c3c(=O)n(C)c(=O)n(C)c3cn2CCO)c1		inactive: 7.86%
O=C(NCc1ccccc1)c1ccc(-c2ccc(F)cc2)o1	inconclusive: 50.1 µM [inhibitor, partial curve]	
Clc1cccc(/C=N/Nc2ncnc3ccccc23)c1	active: 35.5 µM	
CCSc1nc(-c2ccccc2)c(-c2ccccc2)n1CC(O)CO (centres undefined)	inconclusive: 79.4 µM [inhibitor, single point]	
COc1ccc(-n2nc(C(=O)NCC(=O)N3CCCC3)c3ccccc3c2=O)c(OC)c1		inactive: 5.65%
CCOc1ccc(C(=O)/C=C/c2cn(CC(O)CN3CCCCCC3)c3ccccc23)cc1 (centres undefined)	inconclusive: 31.6 µM [inhibitor, partial curve]	
COc1ccc(OCC(=O)Nc2nnc(S(=O)(=O)N3CCc4ccccc43)s2)cc1		inactive: -23.1%
C/C(=C\c1ccccc1)C1Nc2cccc3cccc(c23)N1	inconclusive: 50.1 µM [inhibitor, partial curve]	
OC(CNCc1cccs1)c1ccccc1 (centres undefined)	inconclusive: 89.1 µM [inhibitor, single point]	
C[C@@H](NC(=O)Cn1ccc(NC(=O)OCc2ccccc2)nc1=O)c1cccc2ccccc12	inconclusive: 79.4 µM [inhibitor, single point]	
Cc1cccc(C)c1Nc1c(-c2ccccc2F)nc2cccc(C)n12	inconclusive: 20 µM [inhibitor, partial curve]	
CC(C(=O)NC1CCS(=O)(=O)C1)N1C(=O)/C(=C/c2ccc(Cl)cc2)SC1=S (centres undefined)	inconclusive: 11.2 µM [inhibitor, full curve]	

SMILES	Potency	activity change, negative = inhibition
CCOC(=O)CC(NC(=O)CCc1c(C)nc2c(c(C)nn2-c2ccc(C)c(C)c2)c1C)c1ccc(C)cc1 (centres undefined)		inactive: -2.6%
Cc1cccc(NC(=S)NC(C)(C)CC(C)(C)C)c1	inconclusive: 89.1 µM [inhibitor, single point]	
Cc1nn(-c2ccccc2)c(C)c1/C=N\N1CCN(c2ccc(Cl)cc2)CC1	active: 31.6 µM	
O=C(NCCO)NC(=S)c1ccccc1	inconclusive: 3.55 µM [inhibitor, single point]	
C=CCNC(=O)c1onc(CSc2cc(C)cc(C)c2)c1C(=O)O	inconclusive: 100 µM [inhibitor, single point]	
S=c1[nH]nc(C2CCCCC2)n1/N=C/c1ccccc1Cl	inconclusive: 35.5 µM [inhibitor, full curve]	
CCOC(=O)c1coc(CNC(=O)c2c(C)oc3c2CCCC3)c1	inconclusive: 70.8 µM [inhibitor, single point]	
CCOc1ccccc1N1CCN(c2ncnc3scc(-c4ccc(OC)cc4)c23)CC1	inconclusive: 56.2 µM [inhibitor, partial curve, poor fit]	
Nc1ccccc1SSc1ccccc1N	active: 44.7 µM	
O=C(NNC(=O)C12CC3CC(CC(Cl)(C3)C1)C2)c1ccncc1		inactive: -2.76%
CCc1nnc(NC(=O)c2nc(S(=O)(=O)Cc3ccc(C)cc3)ncc2Cl)s1	inconclusive: 89.1 µM [inhibitor, single point]	
COc1ccccc1C(=O)Oc1c(Sc2ccccc2)c(C)nn1C(C)(C)C		inactive: 24.2%
COc1ccccc1C1CCCN1Cc1nc(-c2cc3c(cc2Cl)OCO3)oc1C (centres undefined)	inconclusive: 20 µM [inhibitor, full curve]	
CC(NC(=O)CCC(=O)NCc1ccc(F)cc1)c1ccccc1 (centres undefined)	inconclusive: 89.1 µM [inhibitor, single point]	
O=C(c1cc2c(ccc3ccccc32)o1)N1CCCCC1	inconclusive: 79.4 µM [inhibitor, single point]	
Cn1cccc1/C=N/NC(=O)c1ccccn1	active: 35.5 µM	
COc1ccc(-c2[nH]c(-c3cccc(OC)c3)nc2SCC(=O)Nc2ccc3c(c2)OCO3)cc1	inconclusive: 20 µM [inhibitor, full curve]	
Cn1c(=O)[nH]c2cc3ccccc3cc21		inactive: 3.69%
COc1cccc(CNC(=O)Cn2c(=O)ccc3cc(S(=O)(=O)N4CCC(C)CC4)ccc32)c1		inactive: -26.6%
COc1ccc(/C=C2\Sc3ccc(C(=O)NCc4cccnc4)cc3N(C)C2=O)cc1OC	inconclusive: 25.1 µM [inhibitor, full curve]	
CCOC(=O)C1=NN(c2ccccc2C)C2=NC(C)=C(C(=O)OC)C(c3cccc(OC)c3)N12 (centres undefined)	inconclusive: 39.8 µM [inhibitor, partial curve]	
O=C1/C(=C\c2cccc(O)c2)SC(=S)N1Cc1ccccc1	active: 39.8 µM	
